Data: PubChem BioAssay AID652106 (National Center for Advancing Translational Sciences (NCATS), 2013)
Hit rate of the full screen: of about 370,000 compounds, about 500 (0.14%) were called active. This list was built around the results that the source calls inconclusive (neither active nor inactive); the mix of calls is not that of the screen. The call rests on the fitted dose curve; in most records, active means well fitted activation curve with a large enough effect; inconclusive means small, poorly fitted or top-dose-only effect; inactive means no such curve, though single readings can be large or run the other way. Potencies of inconclusive entries are left out as doubtful fits.

test: qHTS of alpha-syn Inhibitors; conditions: Yeast expressing alpha-synuclein, BacTiter-Glo, 24 h; Potency: growth rescue unless noted; series mostly up to 46.1 µM; further: nearly all actives have a fitted effect of over 65% in size
In short: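 Readout is rescue of growth in alpha-synuclein-expressing yeast, so inhibitors of toxicity appear as activators. Growth after 24 hr at 30 deg C in galactose medium is quantified by luminescence.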
Potency means the concentration at half of the fitted maximal effect; tags describe the fitted curve by direction and shape.

Compound | Potency
O=C(Cc1c[nH]c2ccccc12)N1CCc2ccccc21 | inconclusive [activator, single point]
COc1cccc(C(O)c2nc(-c3cc(F)cc(F)c3)cs2)c1 (centres undefined) | inconclusive [activator, single point]
COc1ccc([C@@]23Oc4cc(OC)cc(OC)c4[C@]2(O)[C@H](O)[C@H](C(=O)N(C)C)[C@H]3c2ccccc2)cc1 | inconclusive [activator, partial curve]
Cc1nc2c(C(=O)NCc3ccco3)cnn2c(C)c1Cc1ccc(F)cc1Cl | inactive
CCc1ccc(NC(=O)N(Cc2c[nH]c3ccccc23)C2CCCCCC2)cc1 | inconclusive [activator, single point]
Cc1noc(C(=O)Nc2cccnc2)c1Cl | inactive
O=C(N/N=C/c1c[nH]c2ccccc12)C1COc2ccccc2O1 (centres undefined) | inactive
CCCCCNc1nc(NCCCO)c(C#N)c2c1CN(C)CC2 | inconclusive [activator, single point]
CC1=C(C(=O)Nc2ccc(F)cc2)C(c2ccc(C)o2)C2=C(CC(C)(C)CC2=O)N1 (centres undefined) | inconclusive [activator, single point]
CCN(Cc1ccc(Br)s1)C(=O)CSc1nnc(C2CC2)n1C1CC1 | inconclusive [activator, single point]
Cc1ccc(CN2CCNC(=O)C2CC(=O)N(Cc2c(C)nn(C)c2C)C2CC2)o1 (centres undefined) | inconclusive [activator, single point]
O=C(CC(Cc1ccccc1)C(=O)O)Nc1ccccc1 (centres undefined) | inconclusive [activator, single point]
O=C(CCCOc1ccccc1)OCn1nnc2ccccc2c1=O | inconclusive [activator, single point]
Cc1ccc2cc(CN(C(=O)c3ccco3)c3ccccc3)c(=O)[nH]c2c1 | inactive
c1ccc(-n2ncc3c(NCc4ccccn4)ncnc32)cc1 | inconclusive [activator, single point]
Cc1ccc(-c2ccc(=O)n(Cc3cccc(Br)c3)n2)cc1 | active: 22.4 µM
Cc1ccc(C)c(N2CCN(S(=O)(=O)c3c(C)noc3C)CC2)c1 | inactive
CCc1cc(-c2n[nH]c(C)c2-c2nc(C)cs2)c(O)cc1OC | inconclusive [activator, single point]
Cc1ccc(NC(=O)CCn2nc(C)cc2C)cc1 | inactive
CCOC(=O)C1=CN(Cc2ccc(OC)cc2)C=C(C(=O)OCC)C1c1cccs1 | inactive
O=C(Nc1cccc(-c2nnc(-c3ccco3)o2)c1)c1ccccc1 | inactive
Nc1c(S(=O)(=O)c2ccccc2)c2nc3ccccc3nc2n1/N=C/c1ccco1 | inactive
CNC(=O)/C(C#N)=c1\s/c(=C/C(=O)OC)c(=O)n1-c1ccccc1 | inconclusive [activator, single point]

Compound | Potency
COc1cccc(-n2c(SCc3ccc(F)cc3)nc3c([nH]c4ccccc43)c2=O)c1 | inconclusive [activator, single point]
CN(C)C(=O)CSc1nnc(-c2cccnc2)n1-c1ccccc1 | inconclusive [activator, single point]
Cc1cc(C2(O)C(=O)Nc3ccccc32)ccc1F (centres undefined) | inconclusive [activator, single point]
CC(C)(C)NC(=O)C(c1ccccc1)n1c(=O)c(-c2cc3ccccc3[nH]2)nc2ccccc21 (centres undefined) | inconclusive [activator, single point]
CCN1CCN(C(=S)Nc2ccc3nc(N4CCN(CC)CC4)cc(C)c3c2)CC1 | inconclusive [activator, single point]
COCCCn1c(SCC(=O)N(C)C)nnc1-c1ccccc1 | inconclusive [activator, single point]
COc1cc(C2OC(=O)c3ccccc3S2)cc(OC)c1OC (centres undefined) | inconclusive [activator, single point]
CC(C)C(=O)Nc1cccc(C(=O)Nc2cc([N+](=O)[O-])ccc2F)c1 | inconclusive [activator, single point]
CCOC(=O)c1c(NC(=O)CSc2nnc(C)o2)sc(C)c1C | inconclusive [activator, single point]
COc1ccc(CN2C(=O)c3cccnc3C2=O)cc1S(=O)(=O)N(C)c1ccc(C)cc1 | inactive
CCC1CCCN1Cn1cnc2c([nH]c3ccccc32)c1=O (centres undefined) | inactive
CC(C(=O)N1CCCc2ccccc21)N1CCN(S(=O)(=O)c2ccccc2F)CC1 (centres undefined) | inconclusive [activator, single point]
COc1ccc(-c2csc(C(O)c3ccc(F)cc3)n2)cc1 (centres undefined) | inconclusive [activator, full curve]
O=C(NCc1ccccc1)C(c1ccc(-c2ccccc2)cc1)N1CCN(C(=O)C2CCCO2)CC1 (centres undefined) | inconclusive [activator, single point]
CCCCCCCCNC(=O)/C(C#N)=C/c1ccc2c(c1)OCCO2 | inactive
CCCN(CCC)S(=O)(=O)c1ccc(C(=O)Nc2nnc(CSC)o2)cc1 | inconclusive [activator, partial curve]
O=C(Cn1nnc(-c2ccc(CN3CCOCC3)cc2)n1)Nc1nc(-c2ccccc2)cs1 | inconclusive [activator, single point]
O=C(Cc1cnn(-c2ccccc2)c1)c1ccc(O)c(O)c1O | inconclusive [activator, single point]
O=C(COc1ccc2ccccc2c1)NCCn1ccc2ccccc21 | inconclusive [activator, single point]
O=C1c2ccccc2C(=O)N1CCOc1ccccc1Cl | inconclusive [activator, single point]
Nc1ccc(OCC(O)C[n+]2ccc(CCS(=O)(=O)[O-])cc2)cc1 (centres undefined) | inconclusive [activator, single point]
CSc1nc(N)nc(SCCS(=O)(=O)c2ccc(Cl)cc2)c1C#N | inconclusive [activator, partial curve]
CCCCNC(=O)c1oc2ccc(S(=O)(=O)N3CCCC3)cc2c1C | inconclusive [activator, single point]

Compound | Potency
O=C(c1ccc(Cl)c(Cl)c1)N1CCC(=O)N(C(COCc2ccc(Cl)cc2)Cc2ccccc2)CC1 (centres undefined) | inconclusive [activator, single point]
COc1ccc(/C=N/N(Cc2ccccc2)c2ccccc2)cc1O | inconclusive [activator, single point]
Cc1nnc(NC(=O)CSc2nc3c(c(=O)n2C)SC(C)C3)s1 (centres undefined) | inconclusive [activator, single point]
O=C(CSc1ncc(S(=O)(=O)c2ccc(Br)cc2)c(=O)[nH]1)Nc1ccc2c(c1)OCCO2 | inconclusive [activator, single point]
COc1cc(NS(=O)(=O)c2cc3c(cc2C)NC(=O)CO3)cc(OC)c1 | inactive
COc1cccc(N2CCN(S(=O)(=O)c3cc4c(cc3C)N(C)CCO4)CC2)c1 | inconclusive [activator, single point]
COCCN(Cc1ccccc1)C(=S)Nc1ccc(Cl)cc1 | inconclusive [activator, single point]
COc1cc(CO)cc(-c2cc(CO)cc(OC)c2OC)c1OC | inactive
CC(Sc1cccc[n+]1[O-])C(=O)Nc1cccc(S(=O)(=O)N2CCOCC2)c1 (centres undefined) | inconclusive [activator, single point]
COc1ccc(OC)c(C2=Nn3c(nnc3C3CCCCC3)SC2)c1 | inconclusive [activator, single point]
CCCCCC1=NN2C(=O)CC(=O)N=C2S1 | inconclusive [activator, single point]
COc1ccc2oc(=O)c(-c3nnc(N)s3)cc2c1 | inconclusive [activator, partial curve]
COc1ccc(Cl)cc1NC(=O)CSc1nnc(Cc2cccn2C)n1-c1ccc(F)cc1 | inconclusive [activator, single point]
COc1cc(C(=O)NCc2ccccc2)cc(Br)c1OC | inactive
COc1ccc(/C(O)=C2/C(=O)C(=O)N(c3ncccn3)C2c2ccc(OC)cc2)cc1 (centres undefined) | inconclusive [activator, single point]
COc1ccc(C(C)=O)cc1CSc1nnc(Nc2ccc(C)cc2C)s1 | inconclusive [activator, single point]
O=C(c1cccs1)N1CCN(Cc2ccncc2)CC1 | inactive
O=S(=O)(Nc1cccc2cccnc12)c1cccc2ccccc12 | inconclusive [activator, single point]
Cc1cc(S(=O)(=O)Nc2ccc3ccccc3c2)c(C)s1 | active: 17.8 µM
Cc1cccc(C)c1OCCn1c(CCNC(=O)C2CCCCC2)nc2ccccc21 | inconclusive [activator, single point]
COc1cc(/C=C(\CC(=O)O)c2nc3ccccc3s2)cc(OC)c1O | inactive
CCc1ccc(N2C=C(C(=O)OC)C(c3ccc(OC)cc3)C(C#N)=C2N)cc1 (centres undefined) | active: 25.1 µM
N#C/C(=C/c1ccc(Sc2nc3ccccc3[nH]2)o1)c1ccccc1F | inconclusive [activator, partial curve]
